Experimental data as given in the BET-seq Pho4 binding data (Le et al. 2018).
This is one part of the list. These are noisy estimates, calculated here from bound and input reads.

target: T1, Pho4 (S. cerevisiae) (UniProt P07270); assay: relative binding free energy (BET-seq); higher = weaker binding; details: reference: library average
T1 sequence: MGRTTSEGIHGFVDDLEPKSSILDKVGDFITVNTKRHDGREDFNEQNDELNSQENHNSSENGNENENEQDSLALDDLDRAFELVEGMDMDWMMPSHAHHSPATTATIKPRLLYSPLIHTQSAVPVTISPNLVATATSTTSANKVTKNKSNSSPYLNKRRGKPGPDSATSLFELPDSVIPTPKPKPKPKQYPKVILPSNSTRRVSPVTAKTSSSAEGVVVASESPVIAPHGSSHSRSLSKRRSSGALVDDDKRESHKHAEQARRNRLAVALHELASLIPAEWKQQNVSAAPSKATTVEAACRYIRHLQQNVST

Sequence	relative binding free energy [kcal/mol]
ATGAGCACGTGGGGGG	-0.27
GGAAACACGTGGGGTA	-0.2
CATGGCACGTGGGCGG	-0.22
GTAAGCACGTGGACGG	0.04
GTCGGCACGTGGGGGA	-0.26
ATCCACACGTGGTGGG	0.1
TTGTGCACGTGATTGA	0.08
TGATGCACGTGACGGG	0.04
TTTGTCACGTGATGCT	0.19
GGAAACACGTGGGATG	-0.18
GTCTGCACGTGTAGAT	0.39
GGATTCACGTGATGCT	0.31
TAGTTCACGTGTTTAG	0.42
TGGTCCACGTGGTGGA	-0.01
AGGGTCACGTGGTAGA	0.1
GATGGCACGTGGTGGA	-0.15
CGGGGCACGTGAACTG	0.22
ACTTACACGTGATGTG	0.2
CAAGACACGTGGAGTG	0.13
TAGGTCACGTGAAAGA	0.35
CGAGTCACGTGGTATT	-0.01
GAAGCCACGTGTGGTT	0.22
CCTGGCACGTGGGGAA	-0.15

Sequence	relative binding free energy [kcal/mol]
GTGTACACGTGGATAA	0.12
TATGTCACGTGAATTA	0.28
GCTAGCACGTGTAGGT	0.03
GCGCTCACGTGGGAGG	0.12
TGGTACACGTGATATA	0.2
GATGACACGTGTGTAG	0.1
TTGAGCACGTGCTGTT	-0.18
TGTGCCACGTGCGGCT	-0.13
TGATGCACGTGGCAGT	-0.09
CATAGCACGTGTTGGC	0.04
GGTATCACGTGATTTT	0.26
ATTATCACGTGTTGGG	0.14
CGAGTCACGTGGGAGG	-0.05
GAGGTCACGTGCGGTT	0.26
GATTGCACGTGACGGG	0.25
AATAGCACGTGGCGGG	-0.19
GACTTCACGTGTTTTT	0.35
AAAGTCACGTGAGGTA	0.18
TAGGGCACGTGAGCAT	0.01
GGTGGCACGTGTGTAC	-0.15
TAGGTCACGTGCGTGA	0.05
GTTATCACGTGTAGGA	0.21
GACATCACGTGTGGGT	0.1

Sequence	relative binding free energy [kcal/mol]
AGTGTCACGTGCGTAA	-0.19
TAAGTCACGTGGCTAT	-0.05
ATGGTCACGTGCAGGG	0.06
GAGTCCACGTGTAGGT	0.04
TATTGCACGTGTAGAG	0.05
TTCGGCACGTGGTTAT	-0.19
TGGTGCACGTGAGCTT	0.15
GTTGTCACGTGTATGC	0.26
GTGGTCACGTGGGCCA	-0.09
ATCTACACGTGTGTGG	0.09
TGTAACACGTGTTTAT	0.07
GTGGACACGTGTTGGA	0.01
TTGTTCACGTGATTGA	0.31
GGGTGCACGTGTGCCT	0.01
GTGGTCACGTGCGGTA	0.17
CGGTGCACGTGAGCTG	0.16
TATATCACGTGCTTGA	0.07
AAGTTCACGTGTGGTT	0.4
TTAATCACGTGGTATA	0.03
TGCGCCACGTGGGCGG	-0.26
GTGTTCACGTGTTAAG	0.22
GGGGGCACGTGCTTTA	-0.06
TTAAACACGTGCTGTG	0.02

Sequence	relative binding free energy [kcal/mol]
ACATGCACGTGTGTTA	-0.02
TGTAGCACGTGGATGC	-0.15
AGTTTCACGTGATGCA	0.35
CATTGCACGTGGGATG	-0.15
AGATACACGTGGTTTT	0.09
GTATTCACGTGAGAAT	0.5
TTATTCACGTGGATAG	0.25
TGTCGCACGTGTATAT	0.08
CAGAGCACGTGAAGTT	0.31
TTCAGCACGTGTGAGT	-0.11
AGGTACACGTGAGGTA	0.23
GGGAGCACGTGAGGAG	0.23
GGCGGCACGTGGGCGT	-0.13
ATACTCACGTGTTGTT	0.29
GTTTACACGTGAGTGT	0.44
GCGGGCACGTGCGTTA	-0.07
TAGATCACGTGGTGCA	0.03
GGGGTCACGTGACGTT	0.24
TGCCTCACGTGTGGGG	0.01
GTCCTCACGTGTTTGG	0.37
GTAAGCACGTGGGACT	-0.12
AGGGGCACGTGCCAGT	-0.19
ATAGTCACGTGTTTTA	0.08

Sequence	relative binding free energy [kcal/mol]
CTGGGCACGTGGAGAG	-0.01
TATTTCACGTGCGGGT	0.4
AGTGGCACGTGAGCAG	0.01
GGGCCCACGTGCGGGT	-0.02
AAGACCACGTGGTGGG	-0.16
AGATACACGTGTGTAT	-0.02
TTATGCACGTGACAGG	-0.05
ATGCGCACGTGGGGGG	-0.23
GGAATCACGTGAGAGT	0.37
AGATGCACGTGTATGG	0.02
CGTTGCACGTGGAGGA	0.02
TGTAACACGTGGGCGA	-0.21
ATTGTCACGTGTGACT	0.13
CGTTGCACGTGGAGAG	0.12
TAGGTCACGTGGAGAT	0.16
AGGCTCACGTGGGGTA	0.03
TTTGTCACGTGATCAT	0.06
AGTGTCACGTGACTTT	0.04
TTCTGCACGTGGGGGG	-0.2
GGCACCACGTGGTGTT	-0.04
AGTGTCACGTGTAGTT	0.11
ATGGTCACGTGCTGTA	-0.02
TTATGCACGTGGAGGA	-0.13
